Substrate in this series: C[C@@H](c1ncncc1F)[C@](O)(Cn1cncn1)c1ccc(F)cc1F
Description: not read. Particulars: other: N-oxidation of voriconazole, rhCYP3A4, pH 7.5.

The results in this text go back to article PMC8948939.

B1: rhCYP3A4 (Homo sapiens) (protein)
chain: MALIPDLAMETWLLLAVSLVLLYLYGTHSHGLFKKLGIPGPTPLPFLGNILSYHKGFCMFDMECHKKYGKVWGFYDGQQPVLAITDPDMIKTVLVKECYSVFTNRRPFGPVGFMKSAISIAEDEEWKRLRSLLSPTFTSGKLKEMVPIIAQYGDVLVRNLRREAETGKPVTLKDVFGAYSMDVITSTSFGVNIDSLNNPQDPFVENTKKLLRFDFLDPFFLSITVFPFLIPILEVLNICVFPREVTNFLRKSVKRMKESRLEDTQKHRVDFLQLMIDSQNSKETESHKALSDLELVAQSIIFIFAGYETTSSVLSFIMYELATHPDVQQKLQEEIDAVLPNKAPPTYDTVLQMEYLDMVVNETLRLFPIAMRLERVCKKDVEINGMFIPKGVVVMIPSYALHRDPKYWTEPEKFLPERFSKKNKDNIDPYIYTPFGSGPRNCIGMRFALMNMKLALIRVLQNFSFKPCKETQIPLKLSLGGLLQPEKPVVLKVESRDGTVSGA
B1: the Km is 1.20 (0.830–1.58) µM.
